Changes are numbered by the printed parent chain.

B1: Conjugate J9: Anti-cKIT Fab'1 conjugated to LP2 (Fab)
heavy: QVQLVQSGAEVKKPGSSVKVSCKASGGTFSSYAISWVRQAPGQGLEWMGVIFPAEGAPGYAQKFQGRVTITADESTSTAYMELSSLRSEDTAVYYCARGGYISDFDVWGQGTLVTVSSASTKGPSVFPLAPSSKSTSGGTAALGCLVKDYFPEPVTVSWNSGALTSGVHTFPAVLQSSGLYSLSSVVTVPSSSLGTQTYICNVNHKPSNTKVDKRVEPKSCDKTHTCPPCPAPELLG
light: DIQMTQSPSSLSASVGDRVTITCRASQSISNYLAWYQQKPGKAPKLLIYDASSLQSGVPSRFSGSGSGTDFTLTISSLQPEDFATYYCQQYYYESITFGQGTKVEIKRTVAAPSVFIFPPSDEQLKSGTASVVCLLNNFYPREAKVQWKVDNALQSGNSQESVTEQDSKDSTYSLSSTLTLSKADYEKHKVYACEVTHQGLSSPVTKSFNRGEC
modifications: here or on the partner: linker-payload LP2 on native cysteine; linker-payload LP2 on native cysteines (native cysteine conjugation), DAR 3.8 for the whole Fab'
B2: Conjugate J10: Anti-cKIT Fab'2 conjugated to LP1 (Fab)
heavy: QVQLVQSGAEVKKPGSSVKVSCKASGGTFSSHALSWVRQAPGQGLEWMGGIIPSFGTADYAQKFQGRVTITADESTSTAYMELSSLRSEDTAVYYCARGLYDFDYWGQGTLVTVSSASTKGPSVFPLAPSSKSTSGGTAALGCLVKDYFPEPVTVSWNSGALTSGVHTFPAVLQSSGLYSLSSVVTVPSSSLGTQTYICNVNHKPSNTKVDKRVEPKSCDKTHTCPPCPAPELLG
light: B1 light with S28D, N31Q, Y32D, T85V, E94L, S95P, I96S
modifications: here or on the partner: linker-payload LP1 on native cysteine; linker-payload LP1 on native cysteines (native cysteine conjugation), DAR 3.6 for the whole Fab'
B3: Conjugate J16: Anti-cKIT Fab'1 conjugated to LP2 (Fab)
heavy: QVQLVQSGAEVKKPGSSVKVSCKASGGTFSSYAISWVRQAPGQGLEWMGVIFPAEGAPGYAQKFQGRVTITADESTSTAYMELSSLRSEDTAVYYCARGGYISDFDVWGQGTLVTVSSASTKGPSVFPLAPSSKSTSGGTAALGCLVKDYFPEPVTVSWNSGALTSGVHTFPAVLQSSGLYSLSSVVTVPSSSLGTQTYICNVNHKPSNTKVDKRVEPKSCDKTHTCPPCPAP
light: B1 light
modifications: here or on the partner: linker-payload LP2 on native cysteine; linker-payload LP2 on native cysteines (native cysteine conjugation), DAR 3.9 for the whole Fab'
B4: Conjugate J4: Anti-cKIT Fab'1 conjugated to LP1 (Fab)
heavy: B3 heavy
light: B1 light
modifications: here or on the partner: linker-payload LP1 on native cysteine; linker-payload LP1 on native cysteines (native cysteine conjugation), DAR 3.8 for the whole Fab'
B5: Conjugate J15: Anti-cKIT Fab'1 conjugated to LP1 (Fab)
heavy: B3 heavy
light: B1 light
modifications: here or on the partner: linker-payload LP1 on native cysteine; linker-payload LP1 on native cysteines (native cysteine conjugation), DAR 3.9 for the whole Fab'
B6: Conjugate J5: Anti-cKIT Fab'1 conjugated to LP2 (Fab)
heavy: B3 heavy
light: B1 light
modifications: here or on the partner: linker-payload LP2 on native cysteine; linker-payload LP2 on native cysteines (native cysteine conjugation), DAR 3.9 for the whole Fab'
B7: Conjugate J8: Anti-cKIT Fab'1 conjugated to LP1 (Fab)
heavy: B1 heavy
light: B1 light
modifications: here or on the partner: linker-payload LP1 on native cysteine; linker-payload LP1 on native cysteines (native cysteine conjugation), DAR 3.8 for the whole Fab'
B8: Conjugate J11: Anti-cKIT Fab'2 conjugated to LP2 (Fab)
heavy: B2 heavy
light: B1 light with S28D, N31Q, Y32D, T85V, E94L, S95P, I96S
modifications: here or on the partner: linker-payload LP2 on native cysteine; linker-payload LP2 on native cysteines (native cysteine conjugation), DAR 3.8 for the whole Fab'

In this assay the target is Human cKIT on human mobilized peripheral blood hematopoietic stem cells (human), P10721. The experiment in a line: cell-based or functional assay.
Regarding B1, the EC50, cell viability, Human CD34 + cells was 0.0036 µg/mL; the EC50, cell viability, Human CD90 + cells turned out to be 0.012 µg/mL; the EC50, cell viability, Human total nucleated cells stood at 0.0018 µg/mL.

As to B2, the EC50, cell viability, Human CD34 + cells turned out to be 0.057 µg/mL; the EC50, cell viability, Human CD90 + cells came to 0.059 µg/mL; the EC50, cell viability, Human total nucleated cells turned out to be 0.035 µg/mL.

As to B3, the EC50, cell viability, Human CD34 + cells is 0.043 µg/mL; the EC50, cell viability, Human CD90 + cells worked out at 0.089 µg/mL; the EC50, cell viability, Human total nucleated cells stood at 0.029 µg/mL.

Take B4: the EC50, cell viability, Human CD34 + cells is 0.025 µg/mL and the EC50, cell viability, Human CD90 + cells was found to be 0.037 µg/mL.

Turning to B5, the EC50, cell viability, Human CD34 + cells came out at 0.151 µg/mL; the EC50, cell viability, Human CD90 + cells is 0.229 µg/mL; the EC50, cell viability, Human total nucleated cells was found to be 0.115 µg/mL.

For the molecule B6, the EC50, cell viability, Human CD34 + cells was 0.013 µg/mL; the EC50, cell viability, Human CD90 + cells turned out to be 0.039 µg/mL; the EC50, cell viability, Human total nucleated cells turned out to be 0.0088 µg/mL.

As to B7, the EC50, cell viability, Human CD34 + cells is 0.016 µg/mL; the EC50, cell viability, Human CD90 + cells worked out at 0.031 µg/mL; the EC50, cell viability, Human total nucleated cells came to 0.01 µg/mL.

Take B8: the EC50, cell viability, Human CD34 + cells was determined as 0.027 µg/mL; the EC50, cell viability, Human CD90 + cells amounted to 0.041 µg/mL; the EC50, cell viability, Human total nucleated cells stood at 0.016 µg/mL.

For the origin of these results see patent US20210228731A1, “ANTIBODY DRUG CONJUGATES FOR ABLATING HEMATOPOIETIC STEM CELLS” (NOVARTIS AG, priority 2018, published 2021).
